Over roughly 4,500 sequences, “median log2 fold change of GCK-ALFA target abundance (FLAG IP / Myc IP barcode read proportion)” has its median near 0.078; the lowest 2% begin near -0.6. The list shows a part of the results.
B1: GBRAP_160_4511 (protein)
chain: SETLEELFEEVEEAREEILEVIEEENVEEAIVTAAVEWGEVIMYMAELESVSDEAEDAAAKIRDELVAELKANADAPVEELKKIVEEHAERLKEELKELF
B2: GBRAP_78_6743 (protein)
chain: KAEEVIDETIETLNEALKALSSKPIEEVGDAMLHLLDASEALIEAEEEGFPLEYIEEAARHLAAAIAEIEAKGIELPAEIMAALKASLEALKALAAEKKA
B3: GBRAP_128_3335 (protein)
chain: MDEERVEEIKELAEKIIEADPEEARELAEEIAERLKELSLEEVKKAVEYILELLPKLSAEHLEILADVLEEKLPEFDPESANEVADLQVEALNLAVEKEE
B4: GBRAP_160_4749 (protein)
chain: KEEKEKLLKEVEEIFDEGIALLKESPASEAPTIIAGITGEVLMEVFSSEAASDELEDEVAKIADKAEAEAKANADAPVEVHIAILEKAKKEVLEIIKKEI
B5: GBRAP_52_6292 (protein)
chain: SEEEVEETARKIVELVKEGKLEEAIELAKKFVKENSLEEVIRLGKLLIKEIEKLTPEEAEKMLEVIEALAEELEKEFGAEEEADILEAEAAAAAYKVFQK
B6: GBRAP_160_4211 (protein)
chain: MELIEKVIEDIREATEEVKELIPKESREEVANFADVEFGSVLMEAVDAGIENDEILDTIAEAGDKIVETLLENKDASDEEIAEKLEEITEEAIERIKKIA
B7: GBRAP_52_5878 (protein)
chain: KLEEAKELLKKAIEAQKAGKEEEAEKILKEIVEKFDEETILKAVEELAKEIKGKSLEEAKAFFKTAEKLAEILLEKGGSEEVASYIEALAGAALYEVEQK
B8: GBRAP_128_3218 (protein)
chain: STEEAVERVRELLEKIKEADEETARELAEELAELILSSSLETAEAMAEEIEKLLPELTEEQLDILADAFVAAAKKDDTPVSLVLLGIAVDAGEQILEQEE
B9: GBRAP_43_5772 (protein)
chain: SKELVEGALDFALLAAESPEIDEETKVKAIIAAFDLAADEGYADKELILEVVKAAAKNLSAEELEKIRERAERIAKEHPELKEVFDEAIKILEKAIKAKK
B10: GBRAP_153_3948 (protein)
chain: SMESKEKLEKAKKLIEKIKKSEDPTEYIKELAKLLASMNLEERLEVAKEFNSLSEETVYKIFLTLATEEGFSVEELLELTTELNEEQQAAALKAIVEAQK
B11: GBRAP_95_7053 (protein)
chain: EDDRLAFEDAVEVTDAAVELGDEETARRNARRAVELFIKGGPLPFPKGISLEAKKLILEEAYKIADEEDREKLLEEILKSAETEEEKKELKEFYESLLKK
B12: GBRAP_137_3664 (protein)
chain: ATIKVDIELDGDFATITIKADTKELMEKAEDIIDAAAKKHGVAYAIHVDEENKTVTVDLYGEREKLEAFIDDVVAELAKIANVELTLTEDGKTTKKEIKK
B13: GBRAP_52_5933 (protein)
chain: MEEEIRRKVEELVELVRRGDLEGARELAREIVETWSEEELERFIEELARLAREAPLEDLPYILEAADIVAEEIERAGRDEVLADDLLARVAAAAYERLQA
B14: GBRAP_157_3955 (protein)
chain: EVVVVGLLVLPTDTDAEVLAKARAAAAEMAATGRPTVLVVVIRAEDEELAESIEDAVEAVVGYELQRDVPIRVRRLPATATEEEARAALAALAAEARAAA
B15: GBRAP_39_5711 (protein)
chain: EEEEELELLASYYEALAAGEAEKKGISDEEFVEEVKKRIEEKAEEDPENKEVYERILRIMEEGNEEDRLAAAGIAIALEEGMPKEEAEKVLEHIEKERKK
B16: GBRAP_128_3553 (protein)
chain: STEEAVEKARELLEKIKESGPEEARKYAEELVDLLASVDPETRAAIVELILERLPELSVEKLEILADVFRERRPEVDPDVANDLADIEVEALNVALEKEE
B17: GBRAP_128_3548 (protein)
chain: SLEEAKEYAREVVEKIKESDVEEARKITTEFAEKLKTWSLEEVEAALEVVEELSKELDAEKLEAVADVLREQRDKFSPEVQELIAATEVELLNEALEKEE
B18: GBRAP_78_6699 (protein)
chain: ELEKLIEEAIKLVDEAIKLTKKLDPETQAELLDLLVDAASYLEEALEEGGDLELLEEALKKLEEALKLAEKLKKKEAEPLKKKLKEAIKKVKEAIKLVKK
B19: GBRAP_184_5131 (protein)
chain: TLVRRSVEAETAEEAKAQAEAVVAEAAAAGARLLLSVFAKNMSVEEIKELIKHLGALKKAHPQVTVILVVEDELSEEEMDKLIKEADANGVRLVLAISDE
B20: GBRAP_11_2816 (protein)
chain: VSELTKKMIELAKEVAELAEEYLTKAPGDEELLEKLLEKAKELLKLLKEHPDEALRRDAEVLLETIEEAKKDPENREFYVQNALAAARTLLLNLEEEAEE
B21: GBRAP_160_4439 (protein)
chain: SPALAAAEAELDAEAAFVKELADEVSVEDFARALDAEFSSVALNLLSEGRISEEAFDAIMAVVDAAVAELLANPDASLAERRALVDAALARMKAILRADA
B22: GBRAP_125_3106 (protein)
chain: EEEKLLEALKRIAKALGFDEEEAEEAARLARRFSVKNTLYAILLAEGEEELAELVLKLTEEQAKRVLLKVAEWLKEHPNASKEEVVKKLKEVAEEELAAA
B23: GBRAP_184_5165 (protein)
chain: KVLERTLKVSNLEEAEKKLKEIEEEAKKTKAPLYVLLELEKPEKEILELVFRRLGEILREGLATSVTLELTSDLTEEQIDFAVRLADEAGVRLVLAISDE
B24: GBRAP_83_6895 (protein)
chain: KEEITVVANSDNIEEAFDIAIDLSKEEGYKVSIEVIVTPESVEKLLKAFEKLAKEKINVELTVYAEGMTEEEAEELKEKLEEIAKKYGVDVKIEVILVEP
B25: GBRAP_14_3831 (protein)
chain: KKTVKEIIKEALKEIEEELIKAFPEKAEEIKKGMEEILKEVFKELEETKDVEKAFKLLLEKSKEMVDEILKDESETDRAAAKALVDGIVAEAELEYEELK
B26: GBRAP_160_4472 (protein)
chain: SAAVAAAVARLRADVEEELERLKDESPEQIATGAAVTVGSELLEWSSEGLITDEQEDILAKAMDEILELGKTEKDASPEEMIKRIREIVDAAAAAILAAA
B27: GBRAP_43_5759 (protein)
chain: SKELVEGALDFALLAAEDPNISEETKVKAIIAALDLAADEGYLDEELLKEVVEAAAKNLSAESLKKIRDRAEERAKAYPELKEKFTKAADLLEKAIKAKE
B28: GBRAP_125_3047 (protein)
chain: SLEELVEALRLLAKKLGYSEEEVEEIARLARKYGVKGTLIAILLAEGEEELAELAAKLTDEQVAEVLLELKAWLEENPDASKEEVLKKLRELLEKALAKT
B29: GBRAP_14_3879 (protein)
chain: MEEIEKVIDEEFKELAEDLSEMFPEKAEEIKKLVEEIRKETIKLIKETGDVEKALKEAEEKLKAEITKLLADEDPTAIAAAKALVTDEIAEAEEEIEELL

What follows are binders tested against GABARAP, O95166 (assay: median log2 fold change of GCK-ALFA target abundance (FLAG IP / Myc IP barcode read proportion) (log2 ratio); each designed protein is fused to an ALFA-tag nanobody in HEK293 cells to bring the named protein to FLAG-tagged glucokinase (GCK); Myc marks an untargeted standard; higher = target protein stabilised (more abundant)). Details: target protein: 3xFLAG-MCP-GCK-ALFA reporter; HEK293 landing pad (RPLP).
How it was run: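 HEK293 landing-pad cells received a recombined binder library fused to the ALFA nanobody and were induced with 2 μg mL^−1 doxycycline, then transfected with a plasmid encoding a FLAG-tagged target and a Myc-tagged standard. Lysates were collected after 48 h for anti-FLAG and anti-Myc immunoprecipitation, and the circular RNA barcodes were reverse transcribed, amplified and sequenced. Target abundance for each binder is the median log2 ratio of FLAG to Myc barcode read proportions. Barcodes had to reach a proportion of at least 10^−7 in both replicates, each binder needed at least 3 barcodes per replicate, a pseudocount of 10^−6 was applied, and the two replicates were pooled.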

Sequence of GABARAP, O95166 (O95166 whole entry, the tested form may be a part): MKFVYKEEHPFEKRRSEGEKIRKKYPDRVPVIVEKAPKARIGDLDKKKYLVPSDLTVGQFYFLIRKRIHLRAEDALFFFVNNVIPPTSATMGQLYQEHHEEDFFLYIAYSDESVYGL

| Binder | median log2 fold change |
| --- | --- |
| B1 | -0.0636 |
| B2 | -0.0804 |
| B3 | -0.092 |
| B4 | -0.118 |
| B5 | 0.102 |
| B6 | -0.121 |
| B7 | 0.323 |
| B8 | 0.0147 |
| B9 | 0.209 |
| B10 | 0.294 |
| B11 | 0.189 |
| B12 | 0.0957 |
| B13 | -0.376 |
| B14 | 0.0727 |
| B15 | 0.214 |
| B16 | 0.136 |
| B17 | 0.292 |
| B18 | 0.145 |
| B19 | -0.207 |
| B20 | 0.146 |
| B21 | -0.261 |
| B22 | -0.427 |
| B23 | 0.238 |
| B24 | 0.0622 |
| B25 | 0.395 |
| B26 | -0.0686 |
| B27 | 0.188 |
| B28 | -0.274 |
| B29 | 0.127 |

Source: the supplement of paper PMC12632987
